Test systems include CCRF-CEM leukemia; DU-145 prostate; EKVX NSCLC; HCT-15 colon; HOP-92 NSCLC; LOX IMVI melanoma; NCI-H226 lung; NCI-H23 lung; NCI/ADR-RES ovarian; SF-295 CNS; SK-MEL-5 melanoma; U251 CNS; OVCAR-3 ovarian; HOP-62 NSCLC; SF-539 CNS; A549 NSCLC; ACHN renal; BT-549 breast; HCT-116 colon; HL-60(TB) leukemia; HS 578T breast; HT29 colon; IGROV1 ovarian; MALME-3M melanoma; MCF7 breast; MDA-N; MOLT-4 leukemia; NCI-H460 lung; NCI-H522 lung; OVCAR-4 ovarian; PC-3 prostate; RPMI-8226 leukemia; SF-268 CNS; SK-OV-3 ovarian; SNB-75 CNS; SR leukemia; UACC-257 melanoma; UACC-62 melanoma; UO-31 renal; COLO 205 colon; RXF 393 renal; XF 498 CNS.

Common to all, as to assay: NCI tumour cell line growth inhibition, 48 h

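Tested at 5 concentrations; 48 h exposure; 96-well plates; endpoints linearly interpolated, else capped at highest concentration. At the GI50, growth is halved.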 Certain results were filed several times, with different values. The other results are left out here. An entry can have further records. For some assays here: Values given together repeat one measurement in other runs, samples, wells, individuals or studies. Brackets tell where a record comes from. Letters hold for one entry only.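 Definition used: TGI = concentration required for complete inhibition of growth.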 For some assays here: A record mostly stands for its own series of concentrations, which the source does not state; a value can be the end of its range.

`COc1ccccc1N=Nc1c(O)ccc2ccccc12`: the GI50 in the assay on CCRF-CEM leukemia is 7.61 µM [sample A, mean of 2 tests] and > 100 µM [sample B, 1 test].
As to `COc1cccc(-c2cc(=O)c3cc(N4CCN(C)CC4)ccc3[nH]2)c1`, the TGI in the assay with DU-145 prostate was 9.14 µM and > 100 µM; in the assay on EKVX NSCLC, 9.01 µM and > 100 µM; with HCT-15 colon, 5.31 µM and > 100 µM; with HOP-92 NSCLC, 8.56 µM and > 100 µM; with LOX IMVI melanoma, 7.93 µM and > 100 µM; in the assay on NCI-H226 lung it was 5.32 µM and 66 µM. The TGI with NCI-H23 lung is 7.19 µM and > 100 µM; with NCI/ADR-RES ovarian, 3.23 µM and > 100 µM; in the assay on SF-295 CNS, 4.6 µM and > 100 µM; in the assay with SK-MEL-5 melanoma, 3.26 µM and > 100 µM; with U251 CNS, 4.93 µM and > 100 µM.
`C/C(=N\NC(=S)N1CCC1)c1ccccn1`: the TGI in the assay on OVCAR-3 ovarian is 5.62 nM and > 65.3 µM.
`CN(Cc1cnc2nc(N)nc(N)c2n1)c1ccc(C(=O)NC(CCC(=O)O)C(=O)O)c2ccccc12` (stereo not given): the TGI in the assay on HOP-62 NSCLC is 93.3 nM and > 1 mM; with SF-539 CNS, 65.3 nM and > 1 mM.
As for `COc1ccc([C@@]23Oc4cc(OC)cc(OC)c4[C@]2(O)[C@H](O)[C@H](C(=O)N(C)C)[C@H]3c2ccccc2)cc1`, the TGI was 114 nM, 25 µM, 229 nM in the assay on A549 NSCLC; 32.6 nM, 3.24 nM, 36.3 nM in the assay on ACHN renal; 522 nM and 20.4 nM in the assay on BT-549 breast; 143 nM, 25 µM, > 100 µM with CCRF-CEM leukemia; 33.7 nM, 4.67 nM, 122 nM with HCT-116 colon; 1.27 µM, 79.7 nM, 330 nM with HCT-15 colon. Moreover, the TGI with HL-60(TB) leukemia is 51.3 nM and 3.6 µM; in the assay on HOP-62 NSCLC, 69.1 nM, 11.6 nM, 160 nM; in the assay with HS 578T breast, 926 nM, 26.5 nM, 168 nM; in the assay with HT29 colon it was 59.5 nM, 7.47 nM, 117 nM; in the assay on IGROV1 ovarian, 105 nM, 3.26 µM, 2.44 µM; in the assay with MALME-3M melanoma, 57.3 nM, 15.7 nM, 321 nM. The TGI in the assay on MCF7 breast was 259 nM, 2.96 µM, 1.45 µM; with MDA-N, 45.2 nM and 2.5 µM; with MOLT-4 leukemia, 124 nM, 2.05 µM, > 100 µM; in the assay on NCI-H226 lung it was 69.7 nM and 835 nM; in the assay on NCI-H23 lung, 71.1 nM, 8.54 nM, 274 nM; in the assay on NCI-H460 lung, 141 nM and 11.7 µM. The TGI was 57.6 nM and 4.71 nM in the assay with NCI-H522 lung; 419 nM, 11.4 nM, 120 nM in the assay on OVCAR-3 ovarian; 849 nM, 6.75 nM, 297 nM in the assay on OVCAR-4 ovarian; 228 nM and 10.1 µM in the assay with PC-3 prostate; 112 nM, 3.67 nM, 192 nM in the assay on RPMI-8226 leukemia; 426 nM, 18.5 nM, 256 nM in the assay on SF-268 CNS. Further, the TGI in the assay on SK-OV-3 ovarian was 180 nM, 4.18 nM, 18.8 µM; with SNB-75 CNS, 105 nM, 10.7 nM, 320 nM; in the assay on SR leukemia it was 24.5 nM, 25 µM, 54.2 µM; with U251 CNS it was 2.99 µM, 311 nM, 113 nM; with UACC-257 melanoma, 913 nM, 22.3 nM, 119 nM; in the assay with UACC-62 melanoma, 41.2 nM, 7.5 nM, 117 nM. The TGI in the assay on UO-31 renal was 84 nM, 4.32 nM, 96.5 nM.
Regarding `CCCCCCCCCCCCCC(=O)O[C@H]1CC[C@H](NC(=O)[C@H](OC)[C@H](O)[C@@H](O)[C@H](O)/C=C/C(C)C)C(=O)N(C)C1`, the TGI with COLO 205 colon is 102 nM and 3.64 nM; in the assay on NCI-H226 lung it was 345 nM and > 23.8 µM; with RXF 393 renal, 15 µM and 16.2 nM; in the assay on XF 498 CNS, 15 µM and 356 nM.

The values are drawn from PubChem BioAssay (NCI).
